# Experimental data as given in PubChem BioAssay (Tox21).
# Several values for one entry are separate records, joined by “and”; a condition that tells them apart may be missing. Equal values may be shown once. This list was built around the results that the source calls inconclusive (neither active nor inactive); the mix of calls is not that of the screen. Where the call is inconclusive, the potency comes from a doubtful curve fit. Some structures have more than one record in an assay (separate samples or runs), and their calls can disagree. Activity calls are given as the source filed them. Unless noted, calls follow the shape of the dose curve; as a rule, active = well fitted curve in the direction sought with a large enough effect in the repeat runs; inconclusive = weak or mixed curves; inactive = no such curve, though single readings can be large; an effect the other way counts as inactive or inconclusive.
# What was measured:
# [1] = target: Peroxisome proliferator-activated receptor gamma (Homo sapiens) (UniProt P37231); assay: qHTS assay to identify small molecule antagonists of the peroxisome proliferator-activated receptor gamma (PPARg) signaling pathway (AID 743191; calls by dose curve; also: nearly all actives have a fitted effect of over 30% in size); settings: HEK293H PPARg-UAS-bla, beta-lactamase ratio, antagonist, 17 h; ratio activity, negative = inhibition: at 62.6 µM (top of the series) unless noted
# Summary of the method: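 GeneBLAzer PPARg UAS-bla HEK293H cells carrying a UAS-driven beta-lactamase reporter were plated at 3000 cells/well, preincubated 5 h at 37C, then given compound for 17 h at 37C; LiveBLAzer B/G FRET substrate was read after 1 h at room temperature.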
# [2] = qHTS assay to identify small molecule antagonists of the peroxisome proliferator-activated receptor gamma (PPARg) signaling pathway - cell viability counter screen (AID 743194); settings: PPARg-bla HEK293H viability, CellTiter-Glo luminescence, 17 h; Potency: co-treated with 50 nM rosiglitazone unless noted; activity change, negative = cytotoxicity: at 62.6 µM (top of the series), co-treated with 50 nM rosiglitazone unless noted; also: nearly all actives have a fitted effect of over 55% in size
# Summary of the method: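 PPARg-UAS-bla HEK293H cells were plated, rested 5 h at 37 C, then treated with compounds plus rosiglitazone (50 nM final) for 17 h at 37 C; viability was then read by CellTiter-Glo luminescence after 30 min at room temperature.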
# [3] = qHTS assay for small molecule agonists of the antioxidant response element (ARE) signaling pathway (AID 743202; active = well fitted activation curve with a large enough effect in the signal ratio in the repeat runs, not every such curve was filed as active; inconclusive = weak or mixed curves, or effect the other way; inactive = no such curve, though single readings can be large or run the other way; the % refers to the signal ratio; as to activation: % is scaled to controls: 0 for no effect and ±100 for the full control effect); settings: HepG2 ARE-bla reporter, beta-lactamase FRET, 16 h; activation: at 73.3 µM (top of the series) unless noted
# Summary of the method: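 Compounds delivered in DMSO to ARE-bla HepG2 cells (2,000 cells/well, pre-incubated 5 h) and left 16 h at 37 C. LiveBLAzer B/G FRET substrate then added for 2 h at RT before fluorescence reading.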
# [4] = qHTS assay for small molecule activators of the heat shock response signaling pathway - cell viability counter screen (AID 743209); settings: HSE-bla HeLa viability, CellTiter-Glo luminescence, 5 h; activity change, negative = cytotoxicity: at 62.6 µM (top of the series) unless noted; also: nearly all actives have a fitted effect of over 50% in size
# Summary of the method: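 HSE-bla HeLa cells plated overnight, then exposed to Tox21 compounds (23 nL in DMSO) for 5 h at 37 C. After the bla reporter read, CellTiter-Glo was added in the same wells and luminescence read after 30 min at room temperature.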
# [5] = qHTS assay for small molecule activators of the heat shock response signaling pathway (AID 743210; active = well fitted activation curve with a large enough effect in the signal ratio in the repeat runs, with a control signal flat, not every such curve was filed as active; inconclusive = weak or mixed curves; the % refers to the signal ratio); settings: HeLa HSE-bla reporter, beta-lactamase ratio, 5 h; activation: at 62.6 µM (top of the series)
# Summary of the method: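 Reporter gene assay: HeLa cells stably bearing an HSE-bla construct, compound treatment 5 h at 37 C, LiveBLAzer substrate 2.5 h at RT, fluorescence intensity.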
# [6] = qHTS assay to identify small molecule agonists of the peroxisome proliferator-activated receptor delta (PPARd) signaling pathway - cell viability counter screen (AID 743211); settings: PPARd-bla HEK293H viability, CellTiter-Glo luminescence, 17 h; activity change, negative = cytotoxicity: at 62.6 µM (top of the series) unless noted; also: nearly all actives have a fitted effect of over 55% in size
# Summary of the method: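 Viability was measured as CellTiter-Glo luminescence (30 min, room temperature) in the same wells as the beta-lactamase readout. GeneBLAzer PPARd UAS-bla HEK293H cells received compound after 5 h plating and were incubated 17 h at 37 C.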
# [7] = qHTS assay to identify small molecule antagonists of the peroxisome proliferator-activated receptor delta (PPARd) signaling pathway - cell viability counter screen (AID 743213); settings: PPARd-bla HEK293H viability, CellTiter-Glo luminescence, 17 h; viability change, negative = cytotoxic: at 62 µM (top of the series) unless noted; also: nearly all actives have a fitted effect of over 50% in size
# Summary of the method: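 Cytotoxicity counter screen: CellTiter-Glo luminescence read 30 min after addition, in the same wells as the reporter assay. There, PPARd UAS-bla HEK293H cells (3000/well) were treated 17 h at 37 C with compound and 300 nM L165041.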
# [8] = target: Peroxisome proliferator-activated receptor delta (Homo sapiens) (UniProt Q03181); assay: qHTS assay to identify small molecule antagonists of the peroxisome proliferator-activated receptor delta (PPARd) signaling pathway (AID 743215; active = well fitted inhibition curve with a large enough effect in the signal ratio in the repeat runs, not every such curve was filed as active; inconclusive = weak or mixed curves, or effect the other way; inactive = no such curve, though single readings can be large or run the other way; the % refers to the signal ratio;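 also: cells stimulated with agonist L165041 at 300 nM final during compound exposure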; as to ratio activity, negative = inhibition: % is scaled to controls: 0 for no effect and ±100 for the full control effect); settings: HEK293H PPARd-UAS-bla, beta-lactamase FRET ratio, antagonist, 17 h; ratio activity, negative = inhibition: at 62 µM (top of the series) unless noted
# Summary of the method: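 PPARd-bla HEK293H cells (UAS-bla reporter) preincubated 5 h, then given compound plus 300 nM final L165041 agonist for 17 h at 37 C. Beta-lactamase activity read by LiveBLAzer B/G FRET substrate fluorescence after 2 h at room temperature.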
# [9] = qHTS assay to identify small molecule agonists of the farnesoid-X-receptor (FXR) signaling pathway - cell viability counter screen (AID 743218); settings: FXR-bla HEK293T viability, CellTiter-Glo luminescence, 16 h; viability change, negative = cytotoxic: at 62.6 µM (top of the series) unless noted; also: nearly all actives have a fitted effect of over 45% in size
# Summary of the method: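 FXR-UAS-bla HEK 293T cells exposed to compounds for 16 h at 37C. Cytotoxicity read in the same wells by CellTiter-Glo luminescence after 30 min at room temperature, following the beta-lactamase FRET read.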
# [10] = qHTS assay to identify small molecule antagonists of the farnesoid-X-receptor (FXR) signaling pathway - cell viability counter screen (AID 743221; active = well fitted cell-killing curve with a large enough effect in the repeat runs, not every such curve was filed as active; inconclusive = weak or mixed curves, or effect the other way; inactive = no such curve, though single readings can be large or run the other way; also: nearly all actives have a fitted effect of over 50% in size); settings: FXR-bla HEK293T viability, CellTiter-Glo luminescence, 16 h; activity change, negative = cytotoxicity: at 62.6 µM (top of the series) unless noted
# Summary of the method: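 Cytotoxicity counter screen run in the FXR-bla reporter wells: HEK 293T cells exposed to compound with 50 uM (final) chenodeoxycholic acid for 16 h, 37 C, then viability measured by CellTiter-Glo luminescence after 30 min, room temperature.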
# [11] = target: Vitamin D3 receptor (Homo sapiens) (UniProt P11473); assay: qHTS assay to identify small molecule agonists of the vitamin D receptor (VDR) signaling pathway (AID 743222; calls by dose curve); settings: HEK293T VDR-UAS-bla, beta-lactamase FRET ratio, 16 h; activation: at 63.5 µM (top of the series) unless noted
# Summary of the method: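 VDR-bla cells plated 4 h at 37 C, then exposed to compounds for 16 h at 37 C. Beta-lactamase reporter activity measured by fluorescence after 2 h room-temperature loading with LiveBLAzer B/G FRET substrate.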
# [12] = target: Vitamin D3 receptor (Homo sapiens) (UniProt P11473); assay: qHTS assay to identify small molecule antagonists of the vitamin D receptor (VDR) signaling pathway (AID 743223; active = well fitted inhibition curve with a large enough effect in the signal ratio in the repeat runs, not every such curve was filed as active; inconclusive = weak or mixed curves, or effect the other way; inactive = no such curve, though single readings can be large or run the other way; the % refers to the signal ratio; as to activity change, negative = inhibition: % is scaled to controls: 0 for no effect and ±100 for the full control effect); settings: VDR-UAS-bla HEK293T, beta-lactamase FRET ratio, 16 h; activity change, negative = inhibition: at 61 µM (top of the series) unless noted
# Summary of the method: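 Antagonist mode: compound added to VDR-bla cells alongside agonist 1alpha,25-dihydroxyvitamin D3 (3 nM final), incubation 16 h at 37C. Read-out is LiveBLAzer FRET fluorescence, 2 h at room temperature.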
# [13] = qHTS assay to identify small molecule antagonists of the vitamin D receptor (VDR) signaling pathway - cell viability counter screen (AID 743225); settings: VDR-bla HEK293T viability, CellTiter-Glo luminescence, 16 h; viability change, negative = cytotoxic: at 61 µM (top of the series) unless noted; also: nearly all actives have a fitted effect of over 50% in size
# Summary of the method: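 Cytotoxicity counter screen read by CellTiter-Glo luminescence (30 min, room temperature) in the same wells as the VDR-bla antagonist readout. HEK 293T VDR-UAS-bla cells had 16 h at 37C with compound and 3 nM (final) 1-alpha,25-dihydroxyvitamin D3, then 2 h with FRET substrate.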
# [14] = qHTS assay to identify small molecule agonists of the NFkB signaling pathway - cell viability counter screen (AID 1159515; calls by dose curve; also: nearly all actives have a fitted effect of over 55% in size)
# Summary of the method: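 NFkB-bla ME-180 cells, 2,000/well, plated overnight at 37 C; compound added for 5 hr at 37 C. Viability read in the same wells as the bla reporter, by CellTiter-Glo luminescence after 30 min at room temperature.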
# [15] = qHTS assay to identify small molecule agonists of the endoplasmic reticulum stress response signaling pathway (AID 1159516; active = well fitted activation curve with a large enough effect in the signal ratio in the repeat runs, not every such curve was filed as active; inconclusive = weak or mixed curves, or effect the other way; the % refers to the signal ratio; as to activation: % is scaled to controls: 0 for no effect and ±100 for the full control effect); settings: ESRE-bla HeLa, ER stress beta-lactamase reporter, 5 h; activation: at 61 µM (top of the series) unless noted
# Summary of the method: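 CellSensor ESRE-bla HeLa cells, 1,500 per well, plated overnight, then exposed to compounds for 5 hr at 37 C. Beta-lactamase reporter read with LiveBLAzer B/G FRET substrate after 2 hr at room temperature, 405 nm excitation, 460 and 530 nm emission.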
# [16] = qHTS assay for small molecule agonists of the antioxidant response element (ARE) signaling pathway - cell viability counter screen (AID 743203; calls by dose curve; also: nearly all actives have a fitted effect of over 55% in size)
# Summary of the method: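 ARE-bla HepG2 cells were plated, rested 5 h at 37C/5% CO2, then exposed to compounds in DMSO for 16 h. Viability was read as CellTiter-Glo luminescence after 30 min at room temperature, in the same wells as the ARE screen.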
# [17] = qHTS assay to identify small molecule agonists of the vitamin D receptor (VDR) signaling pathway - cell viability counter screen (AID 743224); also: nearly all actives have a fitted effect of over 50% in size
# Summary of the method: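 VDR-bla cells, 4 h after plating, exposed to compounds for 16 h at 37C; viability then read in the same wells as CellTiter-Glo luminescence after 30 min at room temperature, following the bla FRET read.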
# [18] = target: Peroxisome proliferator-activated receptor delta (Homo sapiens) (UniProt Q03181); assay: qHTS assay to identify small molecule agonists of the peroxisome proliferator-activated receptor delta (PPARd) signaling pathway (AID 743212; calls by dose curve); settings: HEK293H PPARd-UAS-bla, beta-lactamase FRET ratio, 17 h; activation: at 62.6 µM (top of the series) unless noted
# Summary of the method: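 A PPARd-bla HEK293H line with beta-lactamase under an Upstream Activator Sequence is treated with compounds at 37 C. Substrate loading for 2 h at room temperature precedes the fluorescence measurement.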
# Potency is read from the fitted curve at half-maximal effect; tags tell the direction and shape of the fitted curve or compound fluorescence and quenching.
# Chain of UniProt P11473 (P11473 whole entry, looked up): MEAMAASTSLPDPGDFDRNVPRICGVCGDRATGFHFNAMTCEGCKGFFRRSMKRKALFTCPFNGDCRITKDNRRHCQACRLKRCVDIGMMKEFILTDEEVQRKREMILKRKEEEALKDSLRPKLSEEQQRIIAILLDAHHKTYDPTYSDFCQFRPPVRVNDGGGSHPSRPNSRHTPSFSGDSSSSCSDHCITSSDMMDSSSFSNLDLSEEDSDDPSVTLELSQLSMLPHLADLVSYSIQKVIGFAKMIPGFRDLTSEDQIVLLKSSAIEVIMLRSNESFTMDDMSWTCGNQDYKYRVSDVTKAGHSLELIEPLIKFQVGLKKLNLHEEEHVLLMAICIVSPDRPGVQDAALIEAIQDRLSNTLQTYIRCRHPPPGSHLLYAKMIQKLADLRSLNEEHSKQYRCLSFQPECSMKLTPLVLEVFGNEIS
# Chain of UniProt P37231 (P37231 whole entry, looked up): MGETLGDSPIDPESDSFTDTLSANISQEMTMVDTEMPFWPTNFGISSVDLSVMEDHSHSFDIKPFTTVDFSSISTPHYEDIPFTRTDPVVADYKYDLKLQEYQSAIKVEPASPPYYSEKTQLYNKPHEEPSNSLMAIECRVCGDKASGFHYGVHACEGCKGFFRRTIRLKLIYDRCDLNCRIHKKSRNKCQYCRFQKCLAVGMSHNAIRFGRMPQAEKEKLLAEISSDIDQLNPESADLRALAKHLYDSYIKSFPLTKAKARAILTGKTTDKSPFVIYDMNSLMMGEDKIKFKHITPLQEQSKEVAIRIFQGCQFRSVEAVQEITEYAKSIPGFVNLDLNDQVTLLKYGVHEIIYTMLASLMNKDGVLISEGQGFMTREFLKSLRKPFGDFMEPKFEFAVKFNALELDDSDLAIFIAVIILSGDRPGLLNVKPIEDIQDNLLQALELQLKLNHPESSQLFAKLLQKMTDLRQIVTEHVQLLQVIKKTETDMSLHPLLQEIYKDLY
# Chain of UniProt Q03181 (Q03181 whole entry, looked up): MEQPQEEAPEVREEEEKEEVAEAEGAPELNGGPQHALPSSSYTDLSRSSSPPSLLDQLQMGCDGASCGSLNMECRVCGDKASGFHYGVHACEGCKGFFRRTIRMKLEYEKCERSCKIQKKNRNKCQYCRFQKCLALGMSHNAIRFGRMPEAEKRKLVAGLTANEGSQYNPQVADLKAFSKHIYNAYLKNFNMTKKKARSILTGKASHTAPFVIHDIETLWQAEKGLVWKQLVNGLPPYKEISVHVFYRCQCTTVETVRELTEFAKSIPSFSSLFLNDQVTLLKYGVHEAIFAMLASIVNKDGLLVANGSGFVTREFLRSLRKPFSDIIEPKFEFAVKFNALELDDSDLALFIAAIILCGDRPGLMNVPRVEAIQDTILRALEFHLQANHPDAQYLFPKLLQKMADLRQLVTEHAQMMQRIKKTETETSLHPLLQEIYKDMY
compound,measurement,setting,value
CCCCCCCCCCCC[N+](C)(C)CCOc1ccccc1,Potency,[1],"inconclusive: 55 µM [cytotoxic] and inconclusive: 26.6 µM [inhibitor, single point]"
same,Potency,[2],active: 21.9 µM and active: 13.3 µM
same,Potency,[3],inconclusive: 68.6 µM and inconclusive: 33.5 µM
same,Potency,[4],"active: 34.7 µM and inconclusive: 29.8 µM [cytotoxic, single point]"
same,Potency,[5],inconclusive: 52.9 µM [cytotoxic] and inconclusive: 33.5 µM
same,Potency,[6],active: 13.8 µM and active: 11.9 µM
same,Potency,[7],"active: 17.4 µM and inconclusive: 13.3 µM [cytotoxic, partial curve, poor fit]"
same,Potency,[8],"inconclusive: 55 µM [cytotoxic, single point]"
same,"ratio activity, negative = inhibition",[8],inconclusive: 1.56%
same,Potency,[9],"active: 24.6 µM and inconclusive: 11.9 µM [cytotoxic, partial curve]"
same,Potency,[10],"inconclusive: 29.8 µM [falling, single point]"
same,Potency,[11],"inconclusive: 61.7 µM [cytotoxic, single point]"
same,Potency,[12],"inconclusive: 55 µM [cytotoxic, single point]"
same,"activity change, negative = inhibition",[12],inconclusive: -5.03% [fluorescent]
same,Potency,[13],active: 21.9 µM and active: 21.3 µM
same,Potency,[14],active: 13.8 µM
same,Potency,[15],"inconclusive: 38.9 µM [cytotoxic, partial curve]"
same,activation,[15],inconclusive: -6.87%
O=[N+]([O-])c1c2ccccc2cc2ccccc12,Potency,[1],"inconclusive: 3.42 µM [rising, full curve, poor fit]"
same,Potency,[3],active: 21.4 µM
same,Potency,[16],"inconclusive: 38.1 µM [cytotoxic, partial curve, poor fit]"
same,Potency,[5],inconclusive: 28.7 µM [activator]
same,Potency,[6],"inconclusive: 60.9 µM [cytotoxic, partial curve, poor fit]"
same,Potency,[7],"inconclusive: 67.7 µM [cytotoxic, single point]"
same,Potency,[10],inconclusive: 54.3 µM
same,Potency,[11],"inconclusive: 34.3 µM [fluorescent, partial curve, poor fit]"
same,Potency,[12],"inconclusive: 1.72 µM [activator, full curve, poor fit]"
same,Potency,[17],"inconclusive: 54.3 µM [cytotoxic, single point]"
same,Potency,[13],"inconclusive: 490 nM [rising, full curve, poor fit]"
same,Potency,[14],"inconclusive: 54.3 µM [cytotoxic, single point]"
same,Potency,[15],inconclusive: 27.2 µM
NNC(=O)c1cccnc1,Potency,[14],"inconclusive: 49.1 µM [cytotoxic, partial curve, poor fit]"
O=S(=O)(O)C(F)(F)C(F)(F)C(F)(F)C(F)(F)F,Potency,[1],"inconclusive: 58.3 µM [inhibitor, partial curve, poor fit]"
same,Potency,[2],"inconclusive: 116 nM [rising, full curve, poor fit]"
same,activation,[3],inconclusive: -12.9% [phenotype inactive] [at 94.8 µM]
same,Potency,[4],"inconclusive: 4.09 µM [cytotoxic, partial curve]"
same,Potency,[18],"inconclusive: 28.9 µM [phenotype inactive, partial curve, poor fit]"
same,Potency,[7],"inconclusive: 4.63 µM [cytotoxic, full curve, poor fit]"
same,Potency,[8],"inconclusive: 0.184 µM [fluorescent, full curve, poor fit]"
same,Potency,[9],"inconclusive: 36.8 µM [rising, partial curve, poor fit]"
same,Potency,[10],"inconclusive: 65.4 µM [phenotype inactive, single point]"
same,Potency,[11],"inconclusive: 0.164 µM [rising, full curve, poor fit]"
same,Potency,[12],"inconclusive: 36.8 µM [activator, single point]"
same,Potency,[17],"inconclusive: 64.8 µM [cytotoxic, single point]"
same,Potency,[13],"inconclusive: 2070 nM [rising, full curve, poor fit]"
same,Potency,[14],"inconclusive: 65.4 µM [rising, partial curve, poor fit]"
same,activation,[15],inconclusive: -1.93% [at 78.8 µM]
